Reference: publication PMC4336329 (PLoS ONE, 2015)
About 2,200 (0.71%) of roughly 310,000 compounds showed an effect of 50% or more. Effects have a minus sign here. Some of the results follow.

target: human ether-à-go-go-related gene (hERG) potassium channel (human, UniProt Q12809); assay: primary screen, population patch clamp on CHO cells stably expressing hERG
Sequence (Q12809 whole entry, looked up): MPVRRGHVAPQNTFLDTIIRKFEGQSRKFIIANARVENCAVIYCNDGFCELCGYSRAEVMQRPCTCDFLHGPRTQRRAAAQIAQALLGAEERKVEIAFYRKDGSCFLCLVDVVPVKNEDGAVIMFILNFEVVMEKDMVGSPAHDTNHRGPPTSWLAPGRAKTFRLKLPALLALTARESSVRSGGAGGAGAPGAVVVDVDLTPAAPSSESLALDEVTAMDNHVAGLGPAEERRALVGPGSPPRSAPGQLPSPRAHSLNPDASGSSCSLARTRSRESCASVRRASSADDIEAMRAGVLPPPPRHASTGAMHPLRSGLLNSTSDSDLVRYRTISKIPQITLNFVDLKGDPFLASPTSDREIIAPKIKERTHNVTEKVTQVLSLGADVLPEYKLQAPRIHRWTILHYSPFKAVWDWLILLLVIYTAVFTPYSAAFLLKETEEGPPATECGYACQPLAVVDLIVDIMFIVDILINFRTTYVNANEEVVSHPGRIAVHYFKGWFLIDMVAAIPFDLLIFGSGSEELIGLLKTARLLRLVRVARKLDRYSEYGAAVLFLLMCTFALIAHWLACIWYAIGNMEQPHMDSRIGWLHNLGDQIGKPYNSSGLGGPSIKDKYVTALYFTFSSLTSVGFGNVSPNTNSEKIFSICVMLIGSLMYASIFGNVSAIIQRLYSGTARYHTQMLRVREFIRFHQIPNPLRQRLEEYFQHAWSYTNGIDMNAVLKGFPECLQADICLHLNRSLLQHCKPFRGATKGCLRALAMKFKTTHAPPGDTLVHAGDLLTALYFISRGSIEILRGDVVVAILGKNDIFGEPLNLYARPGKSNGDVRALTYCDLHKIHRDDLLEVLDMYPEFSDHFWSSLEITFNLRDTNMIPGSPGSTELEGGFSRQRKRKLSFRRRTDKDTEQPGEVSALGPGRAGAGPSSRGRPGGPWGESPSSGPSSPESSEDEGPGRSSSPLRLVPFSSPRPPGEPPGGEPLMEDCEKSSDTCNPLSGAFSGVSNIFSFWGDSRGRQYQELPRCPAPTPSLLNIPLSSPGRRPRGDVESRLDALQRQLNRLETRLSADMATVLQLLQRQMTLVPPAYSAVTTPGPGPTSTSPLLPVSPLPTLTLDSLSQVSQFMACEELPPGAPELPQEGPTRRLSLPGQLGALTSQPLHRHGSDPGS

SMILES	hERG current change (%, negative = inhibition) at 1uM [%]
O=C(CN1CCCCC1)Nc1ccccc1Cl	13.9
COc1ccc2[nH]c(C(=O)NCCc3ccccc3)cc2c1	17.2
O=C(c1ccco1)N1CCN(c2nc3ccsc3c(=O)s2)CC1	-74.5
CCC(C(=O)NCc1ccco1)N(C(=O)CNS(=O)(=O)c1ccccc1)c1ccccc1C (stereo not drawn)	9.69
O=C(c1cccs1)N1CCN=C1SCc1ccc(Cl)cc1	19.2
CN(C)C(=O)/C(=C/c1ccc(-c2cccc([N+](=O)[O-])c2)o1)NC(=O)c1ccccc1	5.68
O=C(COC(=O)Cc1ccccc1[N+](=O)[O-])NCc1ccc(F)cc1	14.2
COc1ccc(CNC(=O)CN(C(=O)c2csnn2)c2ccc(F)cc2)cc1	11.2
COc1cc(C(=O)NNC(=O)CN2C(=O)NC3(CCCC3)C2=O)cc(OC)c1OC	10.8
CC1(C)Cc2noc(N)c2C(C)(C)N1OC(=O)c1cccs1	13.5
Cc1cc(=O)oc2c1c(C)nn2-c1ccc(Cl)cc1	20.1
COCc1c(C(=O)N2CCN(Cc3ccc(C#N)cc3)CC2)oc2ccccc12	-46.4
COc1cccc(NC(=O)CN(C)C(=O)c2cc(C)oc2C)c1	10
CC1CCCN(CCCNC(=O)CN2C(=O)COc3ccccc32)C1 (stereo not drawn)	4.31
O=c1[nH]c(=O)n(CCc2ccccc2)c(O)c1C=NC1CC1	7.56
COC(=O)Cc1c(C)c2ccc(OCC(=O)c3ccc(OC)c(OC)c3)cc2oc1=O	12.5
COc1ccc(CN(Cc2cccn2C)C(=O)c2cc3cc(OC)ccc3[nH]2)cc1	-0.285
O=C(CCc1ccccc1)NC(=S)Nc1ccccc1[N+](=O)[O-]	4.39
CCCOc1ccc(Cl)cc1CNc1ccccc1	11.9
CC(=O)NC12CC3CC(C1)CC(C(=O)Nc1nccs1)(C3)C2	4.2
COC(=O)[C@@]12CCCN1[C@H](c1ccc(-c3cccc(Cl)c3)cc1)[C@H]1C(=O)N(C)C(=O)[C@H]12.O=C(O)C(F)(F)F	6.1
COc1ccc(C(=O)COC(=O)CN2C(=O)C3C4C=CC(C4)C3C2=O)cc1 (stereo not drawn)	7.85

SMILES	hERG current change (%, negative = inhibition) at 1uM [%]
O=C(N/N=C/c1ccccc1)NC1CCCCC1	11
O=S(=O)(NC1CCCCC1)c1cccc(-c2nnc(-c3ccccc3)o2)c1	-4.3
Cc1ccc2c(c1)C1CN(C)CCC1N2S(=O)(=O)c1ccc(Oc2ccc([N+](=O)[O-])cc2)cc1 (stereo not drawn)	11.5
CC1=NN(c2ccc(F)cc2)C(=O)C1C(c1cccc(O)c1)c1c(C)[nH]n(-c2ccc(F)cc2)c1=O (stereo not drawn)	4.93
COCCn1nnnc1SCC(=O)N1CCCCC1	23.7
COC(=O)c1nn(-c2ccc(C)cc2)c2nnc(Cc3ccccc3)c(=O)n12	12.8
CC1(C(=O)OCC(=O)c2c[nH]c3ccccc23)CC1(Cl)Cl (stereo not drawn)	23.1
CCSc1nnc(-c2cc(Br)ccc2N)c(=O)[nH]1	10.1
O=C(COC(=O)c1ccc2c(c1)OCO2)Nc1cccc(F)c1	15.3
CC(=O)c1ccc(NC(=O)C(C)Sc2n[nH]c(-c3cccnc3)n2)cc1 (stereo not drawn)	12.8
CC(C)N1CCN(Cc2ccc(C#CC(C)(C)O)cc2)CC1CCO (stereo not drawn)	6.86
O=C(CCS(=O)(=O)c1cccc2nonc12)NC1CCCCCC1	15.9
NC(=O)CC(NC(=O)c1ccc(Br)cc1)c1ccc(N2CCN(c3ccccc3)CC2)c([N+](=O)[O-])c1 (stereo not drawn)	12.4
Cn1c(=O)c(C(=O)NNC(=O)c2ccc(Br)cc2)c(O)c2ccccc21	15.4
COc1ccc2ccc(=O)oc2c1CC(O)C(C)(C)O (stereo not drawn)	4.37
Nc1ccccc1OCCOCCOc1ccccc1N	12.4
COCC(C)NC(=O)CSc1nc2cc(S(=O)(=O)N3CCCCC3)ccc2o1 (stereo not drawn)	5.94
COc1ccc(-c2c(C)sc(NC(=O)c3ccnn3C)c2C#N)cc1	5.99
O=C(CN1CCN(c2ccc(O)cc2)CC1)N(C1CC1)C1CCS(=O)(=O)C1 (stereo not drawn)	-5.48
Cl.OC(c1ccccc1)(c1ccc(F)cc1)C(c1ccccc1)N1CCOCC1 (stereo not drawn)	17.8
COc1ccc(Cl)cc1C(=O)NNC(=O)CSc1nnc2ccccn12	7.9
CCn1c(SCC(=O)N/N=C(\C)c2ccncc2)nnc1-c1ccc(C)cc1	9.86

SMILES	hERG current change (%, negative = inhibition) at 1uM [%]
CCN1CCN(C(=O)CCc2nc3ccccc3n2-c2ccccc2)CC1	4.36
O=C(N/N=C/c1cc2c(cc1[N+](=O)[O-])OCO2)c1ccc2c(c1)OCO2	18
C=CCN1C[C@@H](C)N(C(c2ccc(C(=O)N(CC)CC)cc2)c2cccc(OC)c2)C[C@@H]1C (stereo partly drawn)	-21.8
COC(=O)c1ccc(NC(=O)CSc2nnc(-c3ccncc3)n2C)cc1	-3.26
CC(C)c1ccc(N2C(=O)/C(=C/N(C)C)SC2=S)cc1	10.6
Cc1cc(C)cc(SCc2noc(C(=O)NC(C)C)c2C(=O)NC(C)C)c1	11.3
CC(=O)Nc1ccc(S(=O)(=O)NCc2nc(-c3ccccc3)no2)cc1	14
CCOC(=O)CSc1nc2sc(C(=O)O)c(C)c2c(=O)[nH]1	9.03
O=C(O)C/C(=C\c1cc(Br)cs1)c1nc2ccccc2o1	6.43
COC(=O)c1ccccc1N=Nc1c(N)n[nH]c1N	13
Cc1cccc(/N=C/c2c(O)n(Cc3ccc4c(c3)OCO4)c(=O)c3ccccc23)n1	2.85
CC(NCC(c1ccco1)N1CCCCC1)C(=O)NC1CCCC1.Cl (stereo not drawn)	6.97
Cc1c(OCC(=O)NCCCN2CCOCC2)ccc2c1oc(=O)c1ccccc12	-15.7
CCOC(=O)c1sc(NC(=O)/C=C/c2cnn(C)c2C)c(C(=O)OC(C)C)c1C	8.87
O=c1[nH]c2ccccc2cc1CN(Cc1cccnc1)S(=O)(=O)c1ccc(Cl)cc1	7.92
CCN(C1CCCCC1)S(=O)(=O)c1ccc(S(=O)(=O)NCc2ccncc2)cc1	7.54
O=C1CN(c2nc(-c3cccnc3)nc3sc4c(c23)CCCC4)CCN1	12.8
CCN(CCNC(=O)C1CCC(=O)N1Cc1ccc(C)cc1)c1ccccc1 (stereo not drawn)	8.79
Fc1cccc(NC(=S)Nc2cccnc2)c1	17.8
CC(=O)c1ccccc1NC(=O)COC(=O)CSCC(=O)Nc1cc(C)on1	5.88
O=C(NC(=O)c1c(Cl)cccc1Cl)Nc1ccc(Oc2cccnc2)nc1	4.07
NC(=O)CSc1ccc(-c2ccc(F)cc2)nn1	12.9

SMILES	hERG current change (%, negative = inhibition) at 1uM [%]
COCCn1c(C)nnc1SCC(=O)Nc1ccccc1[N+](=O)[O-]	16.2
COc1cccc(CNc2cccc3cccnc23)c1O	5.28
COc1ccc(NC(=S)N2CCCC2)c(OC)c1	13.5
N#Cc1ccc(/C=C2\CCn3c2nc2cc(C(=O)O)ccc2c3=O)cc1	10.2
CC(=O)OC1c2c(ccc3ccc(=O)oc23)OC(C)(C)C1OC(=O)CC(C)C (stereo not drawn)	-13.4
O=S(=O)(Nc1ccc(-c2cn3ccsc3n2)cc1)c1ccc2c(c1)OCCO2	13.9
COc1cccc(NC(=O)C2CCCN(S(=O)(=O)c3ccc(-n4cnnn4)cc3)C2)c1 (stereo not drawn)	-9.84
O=c1c2[nH]c3ccc(F)cc3c2ncn1CCCn1ccnc1	-30.7
COC(=O)C1C2C=CC3(CN(C4CCCC4)C(=O)C13)O2 (stereo not drawn)	17.4
CC1(C)Cc2c(C#N)c(NCCN3CCOCC3)nc(-c3ccccc3)c2CO1	0.092
Cc1sc2ncnc(N3CCCCC3C)c2c1C (stereo not drawn)	1.95
COCCNC(=O)Cn1cc(/C=N/NC(=O)c2ccc(Oc3ccc(O)cc3)cc2)c2ccccc21	7.54
CCOc1ccccc1N1CCN(C(=O)c2cccc(S(=O)(=O)N3CCOCC3)c2)CC1	10.8
O=C(NC(c1ccccc1)c1ccccc1)C1CCCC1	7.4
Fc1ccc(C2c3cccn3CCN2C(=S)Nc2cccc(F)c2)cc1 (stereo not drawn)	5.14
CN(C(=O)c1ccncc1)c1ccccc1	13.2
Cc1cc(C)c2c(n1)sc1c(=O)[nH]c(SCc3ccccc3)nc12	10.8
COc1cc(S(=O)(=O)NC2CC(C)(C)NC(C)(C)C2)c(OC)cc1Cl	6.66
O=C(O)C(NC(=O)c1ccccc1)=C(Cl)Cl	14.6
C/C(=N/NC(=O)CNC(=O)CCc1ccccc1)c1ccc(Cl)c(Cl)c1	10.3
CCc1nnc(NC(=O)CCS(=O)(=O)c2ccccc2)s1	19.4
